Over roughly 33,000 sequences, “E-score (-0.5 to 0.5)” has its median near -0.021; the highest 2% begin near 0.32. Some of the results follow.
Each sequence was assayed against T1, Zap1 (UniProt P47043) (assay: PBM E-score (8-mer binding enrichment) (E-score (-0.5 to 0.5)); higher = stronger / more preferred TF binding; most listed sequences are background and not binding sites). Details: protein concentration: 200 nM; construct: GST-full length.
T1 sequence: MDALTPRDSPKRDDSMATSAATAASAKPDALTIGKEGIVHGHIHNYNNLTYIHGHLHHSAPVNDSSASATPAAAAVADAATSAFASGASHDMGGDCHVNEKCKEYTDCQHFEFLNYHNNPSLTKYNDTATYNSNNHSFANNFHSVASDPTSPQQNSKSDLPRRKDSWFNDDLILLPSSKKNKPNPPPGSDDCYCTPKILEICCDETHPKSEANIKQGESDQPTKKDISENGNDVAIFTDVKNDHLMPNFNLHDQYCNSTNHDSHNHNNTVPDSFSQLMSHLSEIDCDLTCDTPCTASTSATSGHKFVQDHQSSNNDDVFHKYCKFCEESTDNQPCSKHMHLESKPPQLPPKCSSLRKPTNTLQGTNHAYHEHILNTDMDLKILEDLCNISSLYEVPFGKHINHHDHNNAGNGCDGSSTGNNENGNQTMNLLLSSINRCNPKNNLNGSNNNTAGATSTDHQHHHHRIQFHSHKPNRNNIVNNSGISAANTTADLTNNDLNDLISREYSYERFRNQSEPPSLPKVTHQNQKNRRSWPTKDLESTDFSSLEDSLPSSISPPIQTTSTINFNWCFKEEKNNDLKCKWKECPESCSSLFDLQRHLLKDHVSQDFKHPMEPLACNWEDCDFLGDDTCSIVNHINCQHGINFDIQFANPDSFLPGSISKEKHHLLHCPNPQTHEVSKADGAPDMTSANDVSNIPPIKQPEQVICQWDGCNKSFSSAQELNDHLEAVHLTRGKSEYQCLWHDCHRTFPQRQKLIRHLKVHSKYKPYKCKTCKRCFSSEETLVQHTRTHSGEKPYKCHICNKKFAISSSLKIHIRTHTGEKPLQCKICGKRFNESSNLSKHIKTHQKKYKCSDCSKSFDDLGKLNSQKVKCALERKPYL
Method in brief: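 Detection of bound protein used fluorescent anti-GST, with scans normalised by masliner. The proteins were GST-tagged yeast transcription factors applied at about 100-200 nM to universal all-10-mer Agilent arrays made double-stranded by primer extension. Each ungapped eight-base word, pooled with its reverse complement, was scored with an E-score from the Universal PBM Analysis Suite.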

Sequence | PBM E-score
CGCCGGCC | -0.122
ATCTAGGC | -0.197
TCACGAAA | 0.0976
CGCTTATA | 0.0122
ACTTTCTG | 0.0107
CGACGAAC | -0.0937
CGTCTTTC | -0.257
AAGCAAAG | -0.148
AGATGCCC | -0.313
CTGTGTCA | -0.107
GCAGTAGA | -0.159
CCTATTAC | 0.115
CGCGATCA | 0.0401
CTCTCCAC | -0.209
AATCCAAC | -0.0925
ACGTTTCT | -0.292
GCGAATGA | 0.0463
AGGTGGTA | 0.172
ACGACCCT | 0.348
CACCTCTG | -0.0642
AACACACG | -0.0306
TGCACCAA | -0.199
AACGTTGA | 0.0837
AGGCTGCC | -0.127
TATGTTCA | 0.116

Sequence | PBM E-score
CATACACC | -0.03
CAAGGGTA | 0.398
ATTGCCTC | -0.149
CGATTGTA | 0.11
CTCGATTA | 0.0137
CGGGCGTC | -0.118
CGGAGAGC | -0.282
AGCTAAAT | -0.123
ATATGGCC | -0.016
GAAAACTA | 0.1
AGAGTTGC | -0.0946
ACGTGGCT | -0.184
GGAAACAC | 0.121
GCAAGGCA | -0.288
AATGCTTG | -0.188
TTGCTAAA | -0.0992
GTCCGCCA | -0.022
GCAGATGC | -0.337
TAACAAAA | 0.233
AAGCCAAT | -0.015
CACAGGCG | -0.236
TCGTTGCA | -0.0835
GGCCACAC | 0.0649
ACATTGTA | -0.038
GCCGCAGA | -0.11

Sequence | PBM E-score
CATTTCAG | -0.0373
GCTCGCCA | -0.11
ACTGGTAA | 0.252
GCTCCCAA | -0.0337
AAACGTGA | 0.0665
AGCAGTTG | -0.153
ACCAGCTA | -0.108
ATTATCCC | 0.0804
ATGCGCAA | -0.0977
CGTGAAAG | 0.1
ACTGCCCA | -0.154
CTAAGTGC | -0.0535
CCATAGGG | 0.236
GTCTGCGA | -0.158
AGATGATC | -0.0279
AGTCGTCG | -0.277
CGTCATTC | 0.0455
TGCAAGCA | -0.156
CATGCTCA | -0.0306
AGCCTTCG | -0.341
CATGCCTC | -0.192
CAGGCAGA | -0.186
GTAGCTAA | 0.118
CTAGCGGC | -0.299
AGTAGGCC | -0.174

Sequence | PBM E-score
AACTGGTC | 0.0163
GCCGCGTA | -0.113
AGAGGGTG | 0.229
CGAGGATA | -0.0862
ATCGTGGA | 0.063
GAAGCGAC | -0.241
AAGCCTAT | -0.203
AACCAAGG | 0.276
GCCTCAAA | 0.00889
AAAGGCGT | -0.183
CTGCAGGC | -0.27
GCTAAACA | 0.0333
CTATGCCA | -0.139
GGTTATAA | 0.471
CAACCACG | 0.123
GGTTAAAC | 0.356
CGTAGTTC | -0.125
ATTTGGGC | -0.0897
GCCGAGGC | -0.0423
ATCGCTTC | -0.0638
CTTAAGGC | 0.0797
GCAAACCA | 0.132
CGAGCACG | -0.349
AGCGAGAT | -0.0192
CCTACAGA | -0.0474

Sequence | PBM E-score
ATCCTAGG | 0.09
ACCCCGGT | 0.246
CTGGAGCC | -0.23
AATGGGGT | 0.31
CAGATCTC | -0.155
AGGCTCCC | -0.162
AGCACACC | -0.126
AACCAAAC | 0.198
ACCAAAAA | 0.302
ATTTAGGC | 0.0733
GACGTCTC | -0.146
GAGTGAAA | -0.0284
ATCTAGGG | 0.033
TCCAACCA | 0.0488
ATCGTGCC | -0.204
CTGAGCAA | -0.0279
CCTTGCAC | 0.207
GAACGTTC | -0.179
AGCGATTA | 0.0404
ATTGCCAC | -0.0476
GAGCGTAC | -0.162
AGCCGAAG | -0.141
CCGTGGCC | -0.0108
ATCCATGA | -0.0518
CAGGACCA | 0.0521

Sequence | PBM E-score
CTGAAAAG | 0.0309
CGTGAGGA | -0.201
GGACCGCA | 0.138
ACTCAACA | -0.033
CTTACCGC | 0.154
AGACGCAG | -0.244
CTACCAAC | 0.0582
AGTTACCC | 0.268
GCCAATGA | -0.165
GACGCTGC | -0.143
ACTAAAGA | 0.00061
CAGTTTTA | 0.124
ACCCTAGA | 0.359
CCAGGTAG | 0.118
CAGTCCAC | -0.162
ATCAGGAT | 0.00655
CTTCAAAG | -0.0735
ATGTACAG | -0.153
CAATTCGA | -0.0319
GCTTATCC | -0.229
CGACGTAG | -0.0869
ATGTCCAG | -0.25
AGAGATGC | -0.143
ATCCGGAT | -0.0587
ATCCGGTA | 0.122

Sequence | PBM E-score
AGAATTTC | -0.148
GGATCGAC | -0.0383
ACCGTACG | -0.149
ATTTGAAA | 0.12
ACAACCCT | 0.443
ACATCAAA | 0.0674
CCAAAGGA | -0.106
CACCGGCG | 0.078
AACCTGAT | 0.177
AATACTGT | 0.114
CCAGCTTA | -0.133
AATATAAG | 0.248
GGCAGAGA | -0.111
TGACGCAA | 0.00972
AACTGCAT | -0.0988
AATATGCT | -0.0515
CGGCCATC | -0.0256
ACGAATCA | 0.00515
CAATCCTC | -0.16
TAATGTGA | 0.0753
ATGGAGCC | -0.222
AGTGGGGG | -0.362
